# According to PubChem BioAssay AID662 (National Center for Advancing Translational Sciences (NCATS), 2007):
# The campaign covered roughly 71,000 compounds. About 1,800 (2.5%) were called active. Inconclusive means that the source gave no clear call. Such entries were picked first, then a sample of the others. Calls follow the shape of the dose curve; as a rule, active = well fitted activation curve with a large enough effect in the signal ratio, with a control signal flat (not every such curve was filed as active); inconclusive = small, poorly fitted or top-dose-only effect, or effect the other way, or a change in a side signal; inactive = flat fitted curve, though single readings scatter; the % refers to the signal ratio. Potencies of inconclusive entries are doubtful fits and often do not repeat.
# Assay: Cell signaling CRE-BLA (Fsk stim); as to activity change, negative = inhibition: % of control where 0% means no effect
# Conditions: CHO CRE-bla reporter (cAMP response element driving beta-lactamase), forskolin EC10, beta-lactamase ratio; activity change, negative = inhibition: at 38.2 µM (top of the series) unless noted
# Procedure, shortened: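 Modulation of forskolin signalling: compounds in titration series added with EC10 NKH 477 to CHO cells carrying a CRE-driven beta-lactamase reporter, 3 h, 37C. CCF4 FRET ratio (460/530 nm, ex 405 nm) gives %activity and AC50.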
# Potency is read from the fitted curve at half-maximal effect; tags tell the direction and shape of the fitted curve.
Compound,Potency,"activity change, negative = inhibition"
CC(C)N(CCC(=O)c1ccc2ccccc2c1)Cc1ccccc1,"inconclusive: 7.94 µM [falling, full curve, poor fit]",inconclusive: -29.3%
CCC(=O)N1CCc2cc(Br)cc(S(=O)(=O)CC(=O)OC)c21,,inactive
Cc1ccc(S(=O)(=O)NCC(=O)NC2CCCC2)cc1,,inactive
CCc1nc(-c2ccccc2O)n(-c2ccccc2)n1,,inconclusive: 19.2%
O=c1c(-c2cccc(Cl)c2)nc2cncnc2n1Cc1ccccc1Cl,"inconclusive: 10 µM [rising, partial curve]",
CCCn1c(SCC(=O)N2CCN(c3ccccc3)CC2)nc2ccccc2c1=O,,inconclusive: 2.5%
CC1CCCCN1CC(=O)Nc1sc2c(c1C#N)CCC2 (centres undefined),,inactive
CC(Cc1ccccc1)C(=O)NCCc1c[nH]c2ccccc12 (centres undefined),"inconclusive: 12.6 µM [falling, single point]",
CC1CCc2c(sc(NC(=O)c3noc4c3CCCC4)c2C(N)=O)C1 (centres undefined),,inconclusive: 11.4%
O=c1c(-c2cc(F)cc(F)c2)nc2cnc(N3CCNCC3)nc2n1Cc1ccc(F)cc1,"inconclusive: 0.316 µM [rising, full curve]",
Cc1cc(C(=O)CSc2nnc(-c3ccco3)o2)c(C)n1CC1COc2ccccc2O1 (centres undefined),,inconclusive: 2.4%
c1nc2nc3c(c(N4CCOCC4)n2n1)CCCC3,active: 2.51 µM,
O=C(CCCCn1c(=O)c2ccccc2n(CC(=O)NC2CCCC2)c1=O)NCc1ccco1,,inconclusive: -14.7%
NC(=O)C1(N2CCCCC2)CCN(C(=O)c2cccn3c(=O)c4cc(Cl)ccc4nc23)CC1,,inconclusive: 24.3%
Cc1ccc(-c2nnc(CSc3nnc(COc4ccccc4)n3-c3ccc(C)cc3)o2)cc1,,inactive
O=C(c1ccc2c(c1)OCO2)N1CCCC(c2ccccc2)C1 (centres undefined),,inactive
c1ccc2c(N3CCOCC3)nc(-c3ccoc3)nc2c1,active: 5.01 µM,
C[N@@+]1(CC[N@@+]2(C)CCC[C@H]2c2cccnc2)CCC[C@@H]1c1cccnc1,,inactive: -1.67% [at 7.6 µM]
CCCS(=O)(=O)N1CCC(C(=O)NCCCOCC)CC1,,inactive
COc1cc(NC(=O)C(F)(F)F)cc(OC)c1,,inactive
CCC(=O)Nc1nonc1-c1nc2ccccc2n1Cc1ccccc1,"inconclusive: 0.251 µM [rising, full curve]",

Compound,Potency,"activity change, negative = inhibition"
O=S(=O)(c1ccccc1)n1ccc2ccccc21,"inconclusive: 1 µM [falling, single point]",
CCOC(=O)CSc1nc2cc(C(=O)NCc3ccco3)ccc2c(=O)n1C1CCCCC1,,inconclusive: 1.68%
CCOCCCn1c(=N)c(C(N)=S)cc2c(=O)n3cccc(C)c3nc21,active: 12.6 µM,
CCOC(=O)c1c(NC(=O)CSc2nnnn2CC)sc(C)c1C,"inconclusive: 12.6 µM [rising, partial curve]",
CCCS(=O)(=O)N1CCc2cc(OC)c(OC)cc2C1,"inconclusive: 25.1 µM [rising, single point]",
COC(=O)Nc1nnc(-c2ccccc2Cl)s1,,inconclusive: 21.6%
CCOC(=O)c1cc2c(=O)n3ccccc3nc2n(CC2CCCO2)c1=NC(C)=O (centres undefined),"inconclusive: 12.6 µM [rising, partial curve]",
CCOC(=O)CSc1nnc(-c2ccc(S(=O)(=O)N3CCOCC3)cc2)n1-c1ccccc1,,inactive
O=C(C1CC1)N1CCc2cc(Br)cc(S(=O)(=O)N3CCOCC3)c21,,inactive
O=C(c1cc(-c2ccc(Cl)c(Cl)c2)on1)N1CCCCC1,,inconclusive: 2.57%
COc1cc(C2C(C(=O)c3ccc(C)o3)=C(O)C(=O)N2Cc2cccnc2)ccc1O (centres undefined),,inconclusive: 17% [cytotoxic]
Cn1c(=O)n(CC(=O)N2CCN(c3nnc(-c4ccccc4)c4ccccc34)CC2)c2ccccc21,"inconclusive: 25.1 µM [falling, single point]",
Cc1ccc(-c2nnc3ccc(SCC(=O)NCc4ccco4)nn23)cc1,,inactive
CNS(=O)(=O)c1cccc(C(=O)OCc2cc(Cl)cc3c2OCOC3)c1,,inactive
COc1ccc(-c2nn(-c3ccccc3)cc2C(=O)N2CCOCC2)cc1,,inactive
N#CC(C(=O)NCCc1ccccc1)c1nc2ccccc2nc1N1CCCCC1 (centres undefined),"inconclusive: 3.98 µM [falling, single point]",
COc1ccc(Cl)c(Cn2c(NCc3ccco3)nc3c2c(=O)n(C)c(=O)n3C)c1,"inconclusive: 15.8 µM [rising, partial curve]",
CCOC(=O)c1sc(NC(=O)c2ccc(S(=O)(=O)N3CCOCC3)cc2)cc1C,"inconclusive: 10 µM [rising, partial curve]",
CCCc1cc(=O)oc2cc(OCC(=O)N(C)C)c(Cl)cc12,,inactive
COc1ccc(OC)c(C2=NOC(C(=O)NCCN3CCOCC3)C2)c1 (centres undefined),,inconclusive: 1.33%
CC1CCCCC1NC(=O)C1Cc2ccccc2CN1S(C)(=O)=O (centres undefined),,inconclusive: -6.47%

Compound,Potency,"activity change, negative = inhibition"
COc1cccc(-n2nnc3c(=O)n(Cc4cccc(F)c4)cnc32)c1,,inconclusive: 17.8%
CC1(C)CC(=O)C2=C(C1)NCN(Cc1ccc3c(c1)OCO3)C2,,inactive
Cc1c(C)c2cc(Cl)c(OCc3nn[nH]n3)cc2oc1=O,,inactive
COC(=O)c1ccccc1NC(=O)COC(=O)c1ccc(C)c(NC(=O)c2ccco2)c1,active: 2.51 µM,
COc1ccc(NC(=O)N2CC[C@@]3(CCCN(C(=O)c4cccn4C)C3)C2)cc1,,inactive
CCOC(=O)c1cnc(-n2nc(C)cc2C)nc1-n1nc(C)cc1C,,inactive
O=C(CSc1ncnc2nc[nH]c12)N1CCOCC1,,inconclusive: -23.5% [at 7.6 µM]
Cc1ccc(N)cc1O,,inactive
COC(=O)CSc1nc2sc(C)c(C)c2c(=O)n1C,,inconclusive: 26.7%
Cc1nc2cnc(N(C)C)nc2n(CCC#N)c1=O,active: 12.6 µM,
NC(=O)c1cc(-c2ccccc2)sc1NC(=O)Cc1ccc(S(=O)(=O)N2CCOCC2)s1,,inconclusive: 26.1%
COCCNc1nc(C)nc2c1nc(-c1ccccc1)n2CCN1CCCC1,,inactive
Cc1cc(NC(=O)COC(=O)CSc2nc3cc(Cl)ccc3n2Cc2ccccc2)no1,"inconclusive: 20 µM [rising, single point]",
COCCn1c(=O)c(-c2cccs2)nc2cnc(Nc3ccccc3)nc21,"inconclusive: 0.398 µM [rising, full curve]",
COc1ccc(-n2c(=O)cc(N3CCOCC3)[nH]c2=O)cc1,"inconclusive: 0.794 µM [falling, full curve, poor fit]",
Cc1cc(NC(=O)CCC(=O)N(C2CC2)C2(C(=O)NC3CCCC3)CCC(C)CC2)no1 (centres undefined),,inconclusive: 0.0281%
COc1ccc2oc(C(=O)OCC(=O)c3ccc4c(c3)OCCO4)c(C)c2c1,,inactive
CC(=O)c1nc2ccccc2n1S(=O)(=O)c1ccc(C)cc1,,inactive
Cc1nn(Cc2ccc(Cl)cc2)c(C)c1NC(=O)c1noc2c1CCCCC2,,inconclusive: -14.2%
CN1CCN(c2nc(-c3ccoc3)nc3ccccc23)CC1,"inconclusive: 12.6 µM [rising, single point]",
COC(=O)CSc1nc2cc3c(cc2cc1C#N)OCO3,,inconclusive: 7.72%

Compound,Potency,"activity change, negative = inhibition"
COc1ccc(CCNC(=O)CSc2nnc(Cc3csc(N)n3)n2C)cc1OC,,inactive
O=C(C1CCCN(S(=O)(=O)c2cccc3cccnc23)C1)N1CCN(c2ccccc2F)CC1 (centres undefined),,inconclusive: -29.8%
CSc1nnc(-c2ccco2)n1-c1ccccc1,,inconclusive: 26.3%
CCOC(=O)C1CCN(c2cc(C)nc3cc(-c4cccc(F)c4)nn23)CC1,,inconclusive: 27.4%
Cc1nc2ccccc2nc1OCC(=O)Nc1cc(C(F)(F)F)ccc1N1CCOCC1,"inconclusive: 12.6 µM [rising, single point]",
CCc1c(C(=O)NCc2ccc3c(c2)OCO3)[nH]c(C)c1C(C)=O,,inconclusive: 4.03%
Cc1c(NC(=O)c2cc(C(C)C)on2)c(=O)n(-c2ccccc2)n1C,,inconclusive: 17.9%
Cc1cc(=O)oc2cc(OC(C)C(=O)N3CCCc4ccccc43)ccc12 (centres undefined),,inactive
CCOC(=O)c1sc(NC(=O)CSc2n[nH]c(-c3ccccc3)n2)c(C#N)c1C,,inactive
CCOC(=O)c1[nH]c(C)c(CN(CCc2ccccc2)S(C)(=O)=O)c1C,"inconclusive: 5.01 µM [rising, partial curve]",
N#Cc1c(-c2cccs2)cc(-c2ccccn2)nc1N,,inactive
O=C(NCCc1cn2ccsc2n1)c1cccs1,active: 12.6 µM,
COc1ccc(-n2nnc3c(=O)n(CC(=O)N4CCCc5ccccc54)cnc32)cc1,"inconclusive: 25.1 µM [rising, single point]",
COc1ccc(S(=O)(=O)N2CCOCC2)c(Cl)c1Cl,,inactive
CC(=O)c1ccc(OCCCC(=O)N2CCN(S(=O)(=O)c3cccs3)CC2)cc1,,inconclusive: 5.32%
C[C@@H]1CC2(OC3C[C@@]4(C)C5=CC[C@H]6C(C)(C)C(O[C@@H]7OC[C@@H](O)[C@H](O)[C@H]7O)CC[C@@]67C[C@@]57CC[C@]4(C)C31)OC(O)C1(C)OC21 (some centres undefined),,inactive
CCCS(=O)(=O)c1c(S(=O)(=O)CCC)c2ccccn2c1C(=O)OC,,inactive
CNC[C@H](O)[C@H](O)[C@H](O)[C@H](O)CO,,inactive
CN1CCN(c2ncc3nc(-c4cc(F)cc(F)c4)c(=O)n(C4CC4)c3n2)CC1,"inconclusive: 12.6 µM [rising, partial curve]",
O=c1nc2n(c3c1oc1ccccc13)Cc1ccccc1-2,,inconclusive: 22.1%
